Consider 79 sequences from the supplement of paper PMC10126150.

Values marked as one replicate rest on one cluster of the flow cell; about a third of the high ones do not repeat.
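Also: ATP exposure 15 min at 22 °C before imaging.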

The subject of this data set is ATP. Put plainly: switch fluorescence ratio, 500 uM ATP over buffer (Cy3 cluster intensity, sum of 5 cycles each) (fold (ratio)); higher = stronger signal-on switching upon ATP binding; sequences stand for … in TCGTCGGCAGCGTCAGATGTGTATAAGAGACAGTTTTTTTTTTTTTTTTTTTTTTTTT…TC. Particulars: aptamer strand: ATP DNA aptamer (quencher-CACCTGGGGGAGTATTGCGGAGGAAGG + anchor), 100 nM annealed; ATP concentration: 500 uM; one replicate. In short, it runs like this: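 Clusters with intensities outside 100-1000 RFU were excluded. The remaining Cy3-labelled switching-strand clusters on a modified Illumina MiSeq flow-cell had been annealed to 100 nM quencher-labelled ATP aptamer and imaged in selection buffer, then after 15 min with 500 uM ATP at 22 °C, for five cycles separated by NaOH stripping and re-annealing. The fluorescence ratio, averaged per switch-domain sequence, is each cluster's summed target-cycle Cy3 intensity over its summed buffer-cycle Cy3 intensity.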
As for TGGCACTACA, the switch fluorescence ratio was determined as 1.05.
Regarding ACATGACCG, the switch fluorescence ratio was 1.22.
The same measure for GCTTCCAGCA: 0.976; for TTACTTGACG: 1.12.
GCTCAAAGGA: the switch fluorescence ratio amounted to 0.992.
For ATAGCACTGG, the switch fluorescence ratio came out at 1.12.
The value for TGTTGGAATG was 1.04.
In the case of GAGGTCGGAT, the switch fluorescence ratio was 0.947.
The same measure for GCTGGACTG: 1.03; for ATAGGTCGGT: 0.996.
As for AACTTGGTAC, the switch fluorescence ratio was found to be 1.03.
Take CTGAATGGTA: the switch fluorescence ratio was determined as 1.01.
The same measure for TCGGGGGA: 0.947.
The same measure for CTCTGCAGAG: 1.17; for TTTTGTCCCA: 0.985; for ACTGTGAATG: 0.998.
As for GGCCCTCGTA, the switch fluorescence ratio worked out at 0.992.
Consider GGATAGGACG, for which the switch fluorescence ratio came out at 1.11.
The same measure for TGCCGCAGTT: 1.33.
The same measure for GATAAGCCAG: 0.968; for GACGTGAGAT: 1.15; for AGTTACTCAT: 0.988.
With GTTGTTCTGT, the switch fluorescence ratio worked out at 0.964.
GCTCCTCCC: the switch fluorescence ratio came to 1.78.
Take GCCGCATGCT: the switch fluorescence ratio was found to be 1.28.
In the case of ATTCTTGGTG, the switch fluorescence ratio amounted to 0.989.
Take ATCGGACGAG: the switch fluorescence ratio turned out to be 0.967.
As for CGTAGAAACG, the switch fluorescence ratio was found to be 0.997.
In the case of AAGTGATTTA, the switch fluorescence ratio was determined as 0.948.
With CTCAACGTCA, the switch fluorescence ratio was determined as 1.11.
Take TTGTACACAC: the switch fluorescence ratio worked out at 1.36.
Regarding ATCATGCATG, the switch fluorescence ratio worked out at 1.01.
The value for AAGGTGTGGA was 1.03; that for TACCGCTGT was 1.11; that for TAATGGGAAC was 1.02.
The same measure for CTGCTTGGGC: 0.978; for CCGATAAACA: 1.08; for TTAAGAGCTC: 0.994.
As for AGTTGTGGCG, the switch fluorescence ratio worked out at 1.11.
As for GCGGTCAAGC, the switch fluorescence ratio was determined as 1.02.
The value for GAGCTATTTA was 1.09; that for GCAGCTATTT was 1.17; that for TGGTATTCTT was 0.962.
For TTGCATAACG, the switch fluorescence ratio was determined as 1.02.
In the case of GGGCTCAGCT, the switch fluorescence ratio worked out at 0.993.
The value for CGGCCGTAGC was 1.12.
As for CCTGGTACTC, the switch fluorescence ratio came to 1.54.
Turning to CAGGGTCCGG, the switch fluorescence ratio is 1.03.
In the case of ACAGCGAAGG, the switch fluorescence ratio turned out to be 1.01.
As to CTTAGTGTTT, the switch fluorescence ratio is 1.03.
Regarding CAGAAAATCC, the switch fluorescence ratio was 1.01.
Take AGAGCATTT: the switch fluorescence ratio is 1.06.
With AAAGTGTATT, the switch fluorescence ratio amounted to 0.959.
The value for TGGAAGGCCT was 0.99.
TGGTCGGGTG: the switch fluorescence ratio was found to be 0.994.
With TTGTAATGTA, the switch fluorescence ratio stood at 0.949.
Consider CTTGAAACCC, for which the switch fluorescence ratio was 1.02.
Regarding CTTATATTCA, the switch fluorescence ratio stood at 0.929.
As for GGGGCCGCTC, the switch fluorescence ratio came out at 1.03.
For the sequence AAAAGAAGGC, the switch fluorescence ratio came to 0.981.
The value for GTAGTTTAA was 0.992; that for TGTGTGTTAA was 0.965.
The value for CAGATGGCAT was 1.02; that for TCATCGAGCG was 0.951; that for AAACAGTCGT was 0.964.
On to ACGTGGATCG, for which the switch fluorescence ratio worked out at 1.13.
Consider GGGTCTCGGA, for which the switch fluorescence ratio was found to be 1.01.
As to ATTTGTATAT, the switch fluorescence ratio is 1.04.
Take GGTCACAAGC: the switch fluorescence ratio turned out to be 0.981.
On to TTTAAGCGGG, for which the switch fluorescence ratio was 1.04.
Consider CGATCGTTTG, for which the switch fluorescence ratio is 1.01.
Regarding ACGATCATTC, the switch fluorescence ratio is 1.14.
TCCTTGAGGC: the switch fluorescence ratio was 1.01.
CTGATTAGGC: the switch fluorescence ratio came out at 1.06.
Regarding TTTATCATTA, the switch fluorescence ratio worked out at 0.956.
GGGGGCGCTT: the switch fluorescence ratio was 1.03.
Consider TCGGGATCAA, for which the switch fluorescence ratio came out at 0.998.
In the case of TCGGGACGGC, the switch fluorescence ratio came to 1.06.
With TCAGTCAGTA, the switch fluorescence ratio is 0.978.
